T1: human BCMA (B cell maturation antigen), expressed on cells (human, UniProt Q02223 1-184)
T1 construct: whole, on cells; Overexpressed on Flp-in CHO cells; also called Flp-inCHO-human BCMA cells; CD269
T1 sequence (looked up): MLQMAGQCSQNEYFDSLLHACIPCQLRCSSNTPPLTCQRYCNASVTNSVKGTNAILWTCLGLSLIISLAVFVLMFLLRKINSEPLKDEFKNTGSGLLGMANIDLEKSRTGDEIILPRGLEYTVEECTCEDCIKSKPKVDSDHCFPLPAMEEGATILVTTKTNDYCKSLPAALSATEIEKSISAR


What was measured:
[1] = molecular target: T1, human BCMA (B cell maturation antigen), …; test: FACS, Flp-inCHO-human BCMA cells
Protocol: (§1) Flp-inCHO-human BCMA cells and CHOK1-human GPRC5D cells were scale-up cultured in T-75 cell culture flask to the logarithmic growth phase, respectively, and the cells were pipetted to obtain a single cell suspension. After the cells were counted and centrifuged, the cell precipitate was resuspended to 2×10⁶ cells per milliliter with a FACS buffer (PBS+2% fetal bovine serum). The suspension was added to a 96-well FACS reaction plate at 50 μl/well. 8 concentrations of the anti-BCMA-GPRC5D-CD3 antibodies or control antibodies were added at 50 μl/well, wherein gradient dilution was performed at a dilution ratio of 5 from a concentration of 100 nM. The cells were incubated at 4° C. for 1 h. The obtained mixture was centrifuged and washed 3 times with a PBS buffer. […] The obtained mixture was centrifuged and washed 3 times with a PBS buffer. 100 μl of the mixture was taken for detection and result analysis by FACS (FACS Canto™, purchased from BD Company). Data analysis was performed by software (FlowJo) to obtain the mean fluorescence intensity (MFI) of the cells. Then, a software (GraphPad Prism8) was used for analysis, data fitting and EC50 calculation.

[2] = molecular target: T2, human CD3, endogenous on Jurkat cells and on activated human PBMC (human, UniProt P07766; P04234); test: FACS, activated human PBMC
T2 construct: whole, on cells; CD3 complex as it stands on T cells
T2 sequence (P07766 23-207, chain 1 of 2): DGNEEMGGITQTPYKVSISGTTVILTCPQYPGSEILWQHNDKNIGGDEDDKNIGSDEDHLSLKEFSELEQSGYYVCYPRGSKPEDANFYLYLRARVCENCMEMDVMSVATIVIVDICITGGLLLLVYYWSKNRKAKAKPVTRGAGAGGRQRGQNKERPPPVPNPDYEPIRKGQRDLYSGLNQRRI
T2 sequence (P04234 22-171, chain 2 of 2, further chain): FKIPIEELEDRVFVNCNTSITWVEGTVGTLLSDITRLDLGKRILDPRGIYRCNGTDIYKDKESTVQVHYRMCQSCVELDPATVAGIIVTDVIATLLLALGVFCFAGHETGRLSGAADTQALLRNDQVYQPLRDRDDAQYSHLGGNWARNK

[3] = molecular target: T3, monkey CD3, on activated monkey PBMC (monkey); test: FACS, activated monkey PBMC
T3 construct: whole, on cells

[4] = molecular target: T2, human CD3, endogenous on Jurkat cells …; test: FACS, Jurkat cells
[5] = molecular target: T4, human GPRC5D, expressed on cells (human, UniProt Q9NZD1 1-345); test: FACS, CHOK1-human GPRC5D cells
T4 construct: whole, on cells; Overexpressed on CHOK1 cells; also called CHOK1-human GPRC5D cells
T4 sequence (Q9NZD1 whole entry): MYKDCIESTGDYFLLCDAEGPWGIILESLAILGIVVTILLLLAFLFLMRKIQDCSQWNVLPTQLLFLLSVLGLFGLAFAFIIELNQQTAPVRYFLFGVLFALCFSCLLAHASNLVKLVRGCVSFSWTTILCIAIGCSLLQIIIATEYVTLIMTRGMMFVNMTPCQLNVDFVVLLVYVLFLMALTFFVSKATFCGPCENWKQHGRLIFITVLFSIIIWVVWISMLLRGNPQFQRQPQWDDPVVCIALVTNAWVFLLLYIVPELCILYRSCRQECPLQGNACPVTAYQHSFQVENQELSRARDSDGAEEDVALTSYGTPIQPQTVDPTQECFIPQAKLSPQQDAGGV
Protocol: as §1

Binder	EC50 [1] [nM]	EC50 [2] [nM]	further results
Tri-17 anti-BCMA-GPRC5D-CD3 trispecific antibody (other, Trispecific antibody; Symmetrical (purification method A)) VHH: EVQLVESGGGLVQPGGSLRLSCSASGFTLDYYMIGWFRQAPGKEREGLSSISPADGSTYYADSVKGRFTISRDSSKNTVYLQMNSLRAEDTAVYYCAAGNEATISWGFGPWEYDYWGQGTMVTVSS VH 1: EVQLVQSGAEVKKPGSSVKVSCKASGYTFTSYGISWVRQAPGQGLEWMGEIYPRSGNTYYNEKFKGRVTLTADKSTSTAYMELSSLRSEDTAVYYCARGRAYGRNYPMDYWGQGTTVTVSS VL 1: EIVLTQSPATLSLSPGERATLSCRASQSIGTSIHWYQQKPGQSPRLLIKYASESISGIPARFSGSGSGTDFTLTISSLEPEDFAVYYCQQSNSWPYTFGGGTKVEIK VH 2: EVQLVESGGGVVQPGRSLRLSCAASGFTFTDYYMSWVRQAPGKGLEWVAMSRNKAKGHTIEYSSSVKGRFTISRDNSKNTLYLQMNSLRAEDTAVYYCARDTYESYDGYFDVWGQGTTVTVSS VL 2: DIVMTQSPDSLAVSLGERATINCKSSQSLFNSRSRKNYLAWYQQKPGQTPKLLIYWASIRESGVPDRFSGSGSGTDFTLTISSLQAEDVAVYYCKQSYYLYTFGQGTKLEIK [letters of human IgG4 Fc with S228P F234A L235A (EU numbers) not shown]	2.97		
Tri-29 anti-BCMA-GPRC5D-CD3 trispecific antibody (other, Trispecific antibody; Symmetrical (purification method A)) VHH: EVQLVESGGGLVQPGGSLRLSCSASGFTLDYYMIGWFRQAPGKEREGLSSISPADGSTYYADSVKGRFTISRDSSKNTVYLQMNSLRAEDTAVYYCAAGNEATISWGFGPWEYDYWGQGTMVTVSS VH 1: EVQLVQSGAEVKKPGSSVKVSCKASGYTFTSYGISWVRQAPGQGLEWMGEIYPRSGNTYYNEKFKGRVTLTADKSTSTAYMELSSLRSEDTAVYYCARGRAYGRNYPMDYWGQGTTVTVSS VL 1: EIVLTQSPATLSLSPGERATLSCRASQSIGTSIHWYQQKPGQSPRLLIKYASESISGIPARFSGSGSGTDFTLTISSLEPEDFAVYYCQQSNSWPYTFGGGTKVEIK VH 2: EVQLVESGGGVVQPGRSLRLSCAASGFTFTDYYMSWVRQAPGKGLEWVAMSRNKAKGHTIEYSSSVKGRFTISRDNSKNTLYLQMNSLRAEDTAVYYCARDTYESYDGYFDVWGQGTTVTVSS VL 2: DIVMTQSPDSLAVSLGERATINCKSSQSLFNSRSRKNYLAWYQQKPGQTPKLLIYWASIRESGVPDRFSGSGSGTDFTLTISSLQAEDVAVYYCKQSYYLYTFGQGTKLEIK [letters of human IgG4 Fc with S228P F234A L235A (EU numbers) not shown]	2.27	161	
Tri-55 anti-BCMA-GPRC5D-CD3 trispecific antibody (other, Trispecific antibody; Symmetrical (purification method A)) VHH: EVQLVESGGGLVQPGGSLRLSCAASESISSIHIMAWYRQAPGKQRELVAGIRNDGSTVYVDSVKGRFTISRDNAKNSLYLQMNSLRAEDTAVYYCNADQGFGSYSEWERRSRWGQGTTVTVSS VH 1: EVQLVQSGAEVKKPGSSVKVSCKASGYTFTSYGISWVRQAPGQGLEWMGEIYPRSGNTYYNEKFKGRVTLTADKSTSTAYMELSSLRSEDTAVYYCARGRAYGRNYPMDYWGQGTTVTVSS VL 1: EIVLTQSPATLSLSPGERATLSCRASQSIGTSIHWYQQKPGQSPRLLIKYASESISGIPARFSGSGSGTDFTLTISSLEPEDFAVYYCQQSNSWPYTFGGGTKVEIK VH 2: EVQLVESGGGVVQPGRSLRLSCAASGFTFTDYYMSWVRQAPGKGLEWVAMSRNKAKGHTIEYSSSVKGRFTISRDNSKNTLYLQMNSLRAEDTAVYYCARDTYESYDGYFDVWGQGTTVTVSS VL 2: DIVMTQSPDSLAVSLGERATINCKSSQSLFNSRSRKNYLAWYQQKPGQTPKLLIYWASIRESGVPDRFSGSGSGTDFTLTISSLQAEDVAVYYCKQSYYLYTFGQGTKLEIK [letters of human IgG4 Fc with S228P F234A L235A (EU numbers) not shown]	0.92	149	EC50 [3]: 159 nM; EC50 [4]: 179 nM
Tri-32 anti-BCMA-GPRC5D-CD3 trispecific antibody (other, Trispecific antibody; Symmetrical (purification method A)) VHH: EVQLVESGGGLVQPGGSLRLSCSASGFTLDYYMIGWFRQAPGKEREGLSSISPADGSTYYADSVKGRFTISRDSSKNTVYLQMNSLRAEDTAVYYCAAGNEATISWGFGPWEYDYWGQGTMVTVSS VH 1: EVQLVQSGAEVKKPGSSVKVSCKASGYTFTSYGISWVRQAPGQGLEWMGEIYPRSGNTYYNEKFKGRVTLTADKSTSTAYMELSSLRSEDTAVYYCARGRAYGRNYPMDYWGQGTTVTVSS VL 1: EIVLTQSPATLSLSPGERATLSCRASQSIGTSIHWYQQKPGQSPRLLIKYASESISGIPARFSGSGSGTDFTLTISSLEPEDFAVYYCQQSNSWPYTFGGGTKVEIK VH 2: EVQLVESGGGVVQPGRSLRLSCAASGFTFTDYYMSWVRQAPGKGLEWVAMSRNKAKGHTIEYSSSVKGRFTISRDNSKNTLYLQMNSLRAEDTAVYYCARDTYESYDGYFDVWGQGTTVTVSS VL 2: DIVMTQSPDSLAVSLGERATINCKSSQSLFNSRSRKNYLAWYQQKPGQTPKLLIYWASIRESGVPDRFSGSGSGTDFTLTISSLQAEDVAVYYCKQSYYLYTFGQGTKLEIK [letters of human IgG4 Fc with S228P F234A L235A (EU numbers) not shown]	2.03		EC50 [4]: 370 nM
Tri-59 anti-BCMA-GPRC5D-CD3 trispecific antibody (other, Trispecific antibody; Symmetrical (purification method A)) VHH: EVQLVESGGGLVQPGGSLRLSCAASESISSIHIMAWYRQAPGKQRELVAGIRNDGSTVYVDSVKGRFTISRDNAKNSLYLQMNSLRAEDTAVYYCNADQGFGSYSEWERRSRWGQGTTVTVSS VH 1: EVQLVQSGAEVKKPGSSVKVSCKASGYTFTSYGISWVRQAPGQGLEWMGEIYPRSGNTYYNEKFKGRVTLTADKSTSTAYMELSSLRSEDTAVYYCARGRAYGRNYPMDYWGQGTTVTVSS VL 1: EIVLTQSPATLSLSPGERATLSCRASQSIGTSIHWYQQKPGQSPRLLIKYASESISGIPARFSGSGSGTDFTLTISSLEPEDFAVYYCQQSNSWPYTFGGGTKVEIK VH 2: EVQLVESGGGVVQPGRSLRLSCAASGFTFTDYYMSWVRQAPGKGLEWVAMSRNKAKGHTIEYSSSVKGRFTISRDNSKNTLYLQMNSLRAEDTAVYYCARDTYESYDGYFDVWGQGTTVTVSS VL 2: DIVMTQSPDSLAVSLGERATINCKSSQSLFNSRSRKNYLAWYQQKPGQTPKLLIYWASIRESGVPDRFSGSGSGTDFTLTISSLQAEDVAVYYCKQSYYLYTFGQGTKLEIK [letters of human IgG4 Fc with S228P F234A L235A (EU numbers) not shown]	1.21	92.1	EC50 [3]: 249 nM
Tri-35 anti-BCMA-GPRC5D-CD3 trispecific antibody (other, Trispecific antibody; Symmetrical (purification method A)) VHH: EVQLVESGGGLVQPGGSLRLSCSASGFTLDYYMIGWFRQAPGKEREGLSSISPADGSTYYADSVKGRFTISRDSSKNTVYLQMNSLRAEDTAVYYCAAGNEATISWGFGPWEYDYWGQGTMVTVSS VH 1: EVQLVQSGAEVKKPGSSVKVSCKASGYTFTSYGISWVRQAPGQGLEWMGEIYPRSGNTYYNEKFKGRVTLTADKSTSTAYMELSSLRSEDTAVYYCARGRAYGRNYPMDYWGQGTTVTVSS VL 1: EIVLTQSPATLSLSPGERATLSCRASQSIGTSIHWYQQKPGQSPRLLIKYASESISGIPARFSGSGSGTDFTLTISSLEPEDFAVYYCQQSNSWPYTFGGGTKVEIK VH 2: EVQLVESGGGVVQPGRSLRLSCAASGFTFTDYYMSWVRQAPGKGLEWVAMSRNKAKGHTIEYSSSVKGRFTISRDNSKNTLYLQMNSLRAEDTAVYYCARDTYESYDGYFDVWGQGTTVTVSS VL 2: DIVMTQSPDSLAVSLGERATINCKSSQSLFNSRSRKNYLAWYQQKPGQTPKLLIYWASIRESGVPDRFSGSGSGTDFTLTISSLQAEDVAVYYCKQSYYLYTFGQGTKLEIK [letters of human IgG4 Fc with S228P F234A L235A (EU numbers) not shown]	2.53	81.4	
Tri-60 anti-BCMA-GPRC5D-CD3 trispecific antibody (other, Trispecific antibody; Symmetrical (purification method A)) VH 1: EGQMVQSGAEVKKPGSSVKVSCKASGYMFTDHTFHWVRQAPGQGLEWMGYIYPRDQNTKYNEKFKGRVTITADKSTSTAYMELSSLRSEDTAVYYCARAGYYGSSHAMDYWGQGTTVTVSS VL 1: DIQMTQSPSSLSASVGDRVTITCKASQDVSTAVAWYQQKPGKSPRLLIYSASSRYTGVPSRFSGSGSGTDFTFTISSLQPEDIATYYCQQLYSTPWTFGGGTKVEIK VH 2: EVQLVQSGAEVKKPGSSVKVSCKASGYTFTSYGISWVRQAPGQGLEWMGEIYPRSGNTYYNEKFKGRVTLTADKSTSTAYMELSSLRSEDTAVYYCARGRAYGRNYPMDYWGQGTTVTVSS VL 2: EIVLTQSPATLSLSPGERATLSCRASQSIGTSIHWYQQKPGQSPRLLIKYASESISGIPARFSGSGSGTDFTLTISSLEPEDFAVYYCQQSNSWPYTFGGGTKVEIK VH 3: EVQLVESGGGVVQPGRSLRLSCAASGFTFTDYYMSWVRQAPGKGLEWVAMSRNKAKGHTIEYSSSVKGRFTISRDNSKNTLYLQMNSLRAEDTAVYYCARDTYESYDGYFDVWGQGTTVTVSS VL 3: DIVMTQSPDSLAVSLGERATINCKSSQSLFNSRSRKNYLAWYQQKPGQTPKLLIYWASIRESGVPDRFSGSGSGTDFTLTISSLQAEDVAVYYCKQSYYLYTFGQGTKLEIK [letters of human IgG4 Fc with S228P F234A L235A (EU numbers) not shown]	6.84		Maximum mean fluorescence intensity [2]: 2690; Maximum mean fluorescence intensity [3]: 3570; Maximum mean fluorescence intensity [4]: 2230; EC50 [5]: 0.92 nM

— patent US20260265390A1 (SHANDONG SIMCERE BIOPHARMACEUTICAL, published 2026)
